Out of some 150,000 compounds screened, about 540 (0.36%) showed an effect of 50% or more. The list shows a part of the results.
System: Plasmodium falciparum
Assay: Primary screen in NF54 nanoGlo assay, in single point, at 2uM, 72h; a lower Z score goes with more inhibition
Assay type: functional, Erythrocyte
Conditions: timepoint 72 hour

Structure (SMILES)	% Inhibition	Z score
CCCN(CC(=O)N(CCc1ccccc1)Cc1ccco1)C(=O)Cc1ccc(F)cc1	-15%	1.69
Cc1ccc(Cl)c(-c2ccc(C(=O)N3CCCN4CCC[C@H]4C3)cc2)c1	-1%	0.17
C[C@](O)(CNC(=O)Nc1ccccc1C(F)(F)F)C1CC1	-8%	1.4
CNc1nc(NCc2nc(C)sc2C)ncc1Br	-11%	1.65
COCC1(C(=O)NC2CCN(S(=O)(=O)c3ccccc3)CC2)CCC1	4%	-0.69
CCc1nnc2n1CCC1(CC2)CCN(C(=O)c2cccnc2C)CC1	-17%	1.63
COCC1(CNC(=O)C[C@@H]2C=CCC2)CCC1	1%	-0.19
Cc1noc(-c2csc(Cc3ccccc3)n2)n1	-3%	0.62
Cc1ccc2nc(-c3ccc(F)cc3)c(CNCc3cn(C)nc3C)cc2c1	0%	0.02
CCc1n[nH]c(C(=O)N[C@@H](CCO)C2CCCCC2)c1Br	30%	-3.42
Cc1ccc(N2C(=O)CN(S(=O)(=O)c3ccccc3)C[C@@]2(C)C(=O)NC2CCCC2)cc1	0%	-0.04
C[C@H](C(=O)N(C)c1ncccn1)C1CC1	-9%	0.88
N#Cc1ccc(C(=O)N2CCc3n[nH]c(=O)n3CC2)cc1	-1%	0.14
CCOc1cccc(C(=O)N2C[C@@H](c3nc(C)no3)O[C@@H](C)C2)c1	8%	-0.83
Cc1ccccc1CC(C1CCN(C(=O)C(C)Oc2ccccc2)CC1)N(C)C(=O)Cn1cccn1 (stereo not drawn)	-5%	0.91
O=C1CC[C@H](NCc2cnc(C3CC3)o2)C2(CCC2)N1	-3%	0.54
Cc1cccc(OCC(=O)N[C@H]2CCc3[nH]c4cc(Cl)cc(Cl)c4c3C2)c1C	4%	-0.78
CN1CCc2ncnc(N3CCN(Cc4ccco4)CC3)c2C1	-13%	2.11
Cn1cnnc1Cn1ccc2ccn(Cc3ccccc3F)c2c1=O	-8%	1.02
CCOCCCNC(=O)CN1C(=O)CCn2nc(-c3cn(C)c4ccccc34)cc21	0%	0
CCOc1cccc(C2Nc3ccc(F)cc3[C@H]3OCCC[C@@H]23)c1OC (stereo partly drawn)	-9%	1.34

Structure (SMILES)	% Inhibition	Z score
O=S1(=O)CCC[C@H](Cn2cc(-c3ccc4c(c3)CCC4)nn2)C1	-3%	0.34
CN1CC(=O)N2CCN(Cc3cccc(-c4ccco4)c3)C[C@H]2C1=O	-4%	0.7
CCCc1nc(C(=O)NCc2c(C)n[nH]c2C)cs1	-4%	0.78
CC(=O)N1CCC(N(C)CC(=O)c2ccc(O)cc2)CC1	-8%	1.2
COCCN1C[C@]2(CCCN(C(=O)c3ccc(N)nc3)C2)CCC1=O	-1%	0.2
Cc1c([C@H](C)NCc2ccccc2F)cnn1-c1cccc2ccccc12	-13%	1.18
COC[C@@H]1C[C@@H](O)CN1C(=O)NCc1coc2ccccc12	-2%	0.41
Cc1cn2c(n1)CC[C@H](NS(=O)(=O)c1ccc(C)c(N(C)C)c1)C2	-1%	0.15
CCN(C(=O)CCN1CCCS1(=O)=O)c1cccnc1	-8%	1.37
Cc1noc([C@H](C)NC(=O)C2=NN(c3ccccc3)C(=O)CN2)n1	-12%	1.81
CCc1nnc(CN(C)[C@@H](C)C(=O)NCc2ccccc2)o1	-5%	0.86
C=CCNC(=O)CN1C(=O)CCn2nc(-c3cn(C)c4ccccc34)cc21	2%	-0.42
CCOCCCC(=O)N1c2c(c(C)nn2C)N(C(=O)OC(C)(C)C)C[C@@H]1C	-3%	0.48
c1cncc(NCCNc2nc(-c3ccco3)nc3c2CCNCC3)c1	1%	-0.17
CC(C)c1ccc(-c2cc3c4nn(CC(=O)N(C)c5ccc(F)cc5)c(=O)n4ccn3n2)cc1	-16%	2.2
Cc1ccc(NC(=O)C2[C@H]3C=C[C@@]4(O3)C(C(=O)NC3CCCC(C)C3C)N(CCC(C)C)C(=O)[C@@H]24)cc1Cl (stereo partly drawn)	2%	-0.31
CCCCCN(C)c1ccc(F)cc1CNc1nnc(-c2cnn(C)c2)o1	-6%	1.11
Cc1csc(C(NC(=O)N(C)C(C)C2CC2)C2CC2)n1 (stereo not drawn)	-1%	0.06
O=C(NC1CCOCC1)N1CCC(F)(F)CC1	-23%	2.98
O=C1NC(=O)C2(CCN(C(=O)c3n[nH]c(=O)c4ccccc34)CC2)N1	-1%	0.18
CC1CCCN(S(=O)(=O)NCC(c2ccco2)N2CCCC2)C1 (stereo not drawn)	-10%	1.33

Structure (SMILES)	% Inhibition	Z score
CCn1ncc2[nH]c(-c3cc(CC(C)C)[nH]n3)nc21	-6%	0.86
CCc1c(C)nc(C)nc1NC[C@H]1CN(C(C)=O)CCO1	-5%	0.91
CCOc1cncc(CN[C@H]2CCCN(c3ccnn3C)C2)c1	10%	-1.16
COCC1(CNCc2ccnn2-c2ccccc2)CCC1	9%	-1.38
Cc1cccc(S(=O)(=O)c2csc3c2NC(=O)C[C@@H]3c2cccc(Cl)c2)c1	0%	0
Cc1nsc(N2CCC(NCc3ccccc3)CC2)n1	3%	-0.37
Cc1cc(C)c2c3ccccc3n(CCNC(=O)c3ccncc3)c2n1	4%	-0.52
Cc1cccc(NC(=O)Cn2c(C)cc3nc4n(c(=O)c32)CCC4)c1C	-12%	1.37
Cc1ccc(C2OCCCC2NC(=O)CC(C)c2c(C)noc2C)cc1 (stereo not drawn)	3%	-0.37
OC(c1nc2ccccc2[nH]1)C(O)C(O)C(O)c1nc2ccccc2[nH]1 (stereo not drawn)	-15%	2.38
CCN(CCNC(=O)C1CCN(S(=O)(=O)N(C)C)CC1)c1ccc(C)cc1	-25%	2.18
C#Cc1cccc(N(C(=O)CCNC(=O)C(C)(C)C)C(C)C)c1	-11%	0.94
O=C1CN(Cc2ccccc2)C2(CCN(Cc3ccncc3)CC2)N1	-3%	0.37
COc1ccc(OC)c(NC(=O)[C@@H]2CCCN2S(=O)(=O)c2cc3c(cc2C)NC(=O)CO3)c1	-8%	1.64
O=C(NCc1cccnc1)/C(=C\c1cccc(Oc2ccccc2)c1)S(=O)(=O)c1ccccc1	-20%	1.75
Cc1cc(C(=O)N2C(C)CC3CCCCC32)nn1C (stereo not drawn)	1%	-0.21
C=CCCC(=O)NC[C@@H](CO)Cc1ccc(F)c(Br)c1	4%	-0.72
CS(=O)(=O)N[C@H]1CCCN(C(=O)N2CCc3ccccc32)C1	-12%	1.56
C[C@H]1CN(C)CCN1C(=O)c1occc1-c1ccccc1	-4%	0.46
CCCn1cc(CCNC(C)=O)c2cccnc21	-20%	2.32
Cc1cc(OCCN2C(=O)[C@@H](C)CNc3ccccc32)ccc1Cl	-13%	1.47

Structure (SMILES)	% Inhibition	Z score
CCN(CCC1CC1)C(=O)c1oc(C(F)F)cc1C	1%	-0.12
CN1CCC(n2nc(-c3ccccc3)nc2Cn2ccc(=O)[nH]c2=O)CC1	-2%	0.43
O=C1N(CCN2C(=O)C3(OCCO3)c3ccccc32)c2ccccc2C12OCCO2	1%	-0.11
COCCOCC(=O)NCc1ccc(N(C)C)c(C)c1	5%	-0.85
CC(C)c1ccc(C(=O)N(C)CC(C)(CO)CO)cn1	-6%	0.55
COCCN1CCC[C@@]2(CCN(Cc3cnn(-c4ccc(Cl)cc4)c3)C2)C1	-9%	1.21
O=C1CC2(CCN(c3nnnn3-c3ccccc3)CC2)CN1Cc1ccccc1	-4%	0.66
CCN1C(=O)NC(=O)C12CCN(C(=O)[C@@H](c1cccc(F)c1)N(C)C)CC2	-4%	0.56
O=C1CCCC[C@H](CNC(=O)c2ccncc2)N1	-3%	0.53
O=C(NCc1ccco1)c1ccc2c(=O)n(-c3cccc(Cl)c3)cnc2c1	-2%	0.27
CCN(CC)C(=O)c1nc(CNC(=O)c2ccc(C)s2)oc1C	-4%	0.44
CCN(CC)C(=O)Cc1c(C)nn(C)c1C	-2%	0.4
O=C(NCCc1ccccc1)c1ccccc1NC(=O)[C@H]1CC(=O)N(c2ccc(F)cc2)C1	-2%	0.26
O=C(Cn1c(-c2cccs2)cc2ccccc21)NC1CCCCC1	-6%	0.91
C=CCNC(=O)c1ccc(N(C)C[C@H]2CCCOC2)nc1	-18%	1.88
O=C(c1c(F)cccc1F)N1CC(c2nc(-c3ccncc3)no2)C1	-8%	1.18
Cc1nc(-c2ccccc2)cc2n[nH]c(=O)n12	26%	-2.91
O=C(NCc1cccc(F)c1)c1cccc(C(=O)NCc2cccc(F)c2)n1	6%	-0.83
O=C(Nc1sc2c(c1[C@H](O)c1ccccc1)CCCC2)c1cccs1	-3%	0.3
O=S(=O)(NCc1nc2ccccc2o1)N1CCCCC1	1%	-0.14
O=C(CNC1(c2cccc(Cl)c2)CC1)NCC1CCC1	-10%	1.74
